The text below walks through data of publication PMC4336329 (PLoS ONE, 2015).

Screen size: about 310,000 compounds; about 2,200 (0.71%) showed an effect of 50% or more. The effect is printed as a negative number. This is one part of the list.

Chain of human ether-à-go-go-related gene (hERG) potassium channel (Q12809 whole entry, looked up): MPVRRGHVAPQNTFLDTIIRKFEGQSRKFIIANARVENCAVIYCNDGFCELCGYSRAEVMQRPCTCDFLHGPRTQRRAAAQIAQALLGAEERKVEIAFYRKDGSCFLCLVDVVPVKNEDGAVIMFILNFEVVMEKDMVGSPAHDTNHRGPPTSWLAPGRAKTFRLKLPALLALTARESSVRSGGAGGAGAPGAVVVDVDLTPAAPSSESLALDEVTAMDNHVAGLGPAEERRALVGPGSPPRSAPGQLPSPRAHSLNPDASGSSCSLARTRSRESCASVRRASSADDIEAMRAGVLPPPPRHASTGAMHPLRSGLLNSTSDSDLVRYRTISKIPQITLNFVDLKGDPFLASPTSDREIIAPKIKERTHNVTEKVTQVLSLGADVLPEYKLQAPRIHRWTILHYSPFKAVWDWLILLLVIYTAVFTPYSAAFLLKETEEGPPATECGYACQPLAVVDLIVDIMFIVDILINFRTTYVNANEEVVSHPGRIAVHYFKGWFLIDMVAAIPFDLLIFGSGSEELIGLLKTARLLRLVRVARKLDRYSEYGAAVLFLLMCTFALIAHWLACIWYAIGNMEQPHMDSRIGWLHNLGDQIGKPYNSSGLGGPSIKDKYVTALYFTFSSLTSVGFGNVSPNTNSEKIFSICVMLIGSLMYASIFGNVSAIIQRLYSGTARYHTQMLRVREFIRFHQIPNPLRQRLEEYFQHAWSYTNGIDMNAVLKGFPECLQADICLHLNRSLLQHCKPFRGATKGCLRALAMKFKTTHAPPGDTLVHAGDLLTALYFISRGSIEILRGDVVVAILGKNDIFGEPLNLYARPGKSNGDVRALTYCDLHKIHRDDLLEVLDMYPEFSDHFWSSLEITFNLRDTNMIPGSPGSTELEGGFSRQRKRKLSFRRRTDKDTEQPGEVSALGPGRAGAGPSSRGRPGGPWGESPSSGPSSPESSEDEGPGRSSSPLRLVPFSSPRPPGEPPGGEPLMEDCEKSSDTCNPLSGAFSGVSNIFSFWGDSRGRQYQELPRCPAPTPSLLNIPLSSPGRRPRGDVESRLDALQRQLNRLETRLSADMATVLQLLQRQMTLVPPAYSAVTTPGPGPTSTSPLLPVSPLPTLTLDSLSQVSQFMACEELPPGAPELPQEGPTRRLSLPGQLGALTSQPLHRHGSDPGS

The experiment concerns the target human ether-à-go-go-related gene (hERG) potassium channel (human, UniProt Q12809). As to the kind of experiment: primary screen, population patch clamp on CHO cells stably expressing hERG.
Regarding `COc1cc(NC(=O)C2=C(N3CCOCC3)/C(=C\c3ccc(N(C)C)cc3)CCC2)cc(OC)c1OC`, the “hERG current change (%, negative = inhibition) at 1uM” value was determined as 11.7%.
As to `CC1Oc2ccccc2N(CC(=O)N(Cc2ccccc2)Cc2ccccn2)C1=O` (centres unmarked), the “hERG current change (%, negative = inhibition) at 1uM” value stood at 2.82%.
Turning to `Nc1nonc1-c1nc2ccccc2n1CC(=O)N1CCCCC1`, the “hERG current change (%, negative = inhibition) at 1uM” value is given as 10.7%.
Turning to `CCC(=O)Oc1ccc(C(=O)Nc2cccc(C(=O)NC(C)(C)C)c2)cc1`, the “hERG current change (%, negative = inhibition) at 1uM” value worked out at 10%.
To `CN(CC(=O)Nc1cccc(F)c1)C(=O)c1ccc(COc2ccccc2)cc1` belongs 2.21%.
The same measure for `CCOc1cc(/C=C2/N=C(C)C(C(=O)OC)=C2O)ccc1O`: -8.64%; for `COc1ccc(CC(=O)O/N=C(\N)c2cccc([N+](=O)[O-])c2)cc1`: 5.1%.
`CCCCSc1nnc([C@H](CC(C)C)NC(=O)OC(C)(C)C)o1`: the “hERG current change (%, negative = inhibition) at 1uM” value is reported as -1.39%.
On to `O=C(CNc1n[nH]c(=O)[nH]c1=O)N/N=C/c1ccccc1`, for which the “hERG current change (%, negative = inhibition) at 1uM” value came out at 2.67%.
Turning to `Cc1ccc2nc3c(c(C(=O)O)c2c1)CCC3`, the “hERG current change (%, negative = inhibition) at 1uM” value amounted to 12.6%.
The same measure for `Cc1nc(NS(=O)(=O)c2cccc([N+](=O)[O-])c2)sc1C(C)(C)C`: 7.39%.
To `N#C/C(=C/c1cc[nH]c1)C(N)=S` belongs 16.8%; to `COc1ccc(C)cc1S(=O)(=O)N1CCN(C(=O)c2ncoc2-c2ccccc2C)CC1`, 12.4%; to `c1ccc(CN2CCC(Nc3nc(-c4ccccc4)nc4ccccc34)CC2)cc1`, 4.83%.
The same measure for `O=C(Nc1cccs1)Nc1ccc(F)cc1F`: 7.67%.
Regarding `O=C(CSc1nnc(-c2ccco2)o1)c1ccccc1`, the “hERG current change (%, negative = inhibition) at 1uM” value came to 12.6%.
To `CC1(C)Cc2ccccc2/C(=C/C(=O)N2CCCCCC2)N1.Cl` belongs 7.94%.
To `Cc1cc(C)cc(NC(=O)COC(=O)c2cccc(S(=O)(=O)N3CCCCC3)c2)c1` belongs 6.02%; to `CCC1CCCCN1C(=O)COc1cc(=O)n(C)c2ccccc12` (centres unmarked), 6.41%.
The same measure for `Fc1ccc(-c2nnc3n2CCCCC3)cc1`: 9.08%.
Consider `CC(NC(=O)COC(=O)Cc1ccsc1)C1CC2CCC1C2` (centres unmarked), for which the “hERG current change (%, negative = inhibition) at 1uM” value came out at 0.548%.
To `CC(Cc1cccnc1)NC(=O)c1cc(COc2ccc(F)cc2Cl)on1` (centres unmarked) belongs -9.74%; to `Cc1cc(Cl)c(C)c(S(=O)(=O)N2CCN(C(=O)C3CCCO3)CC2)c1Cl` (centres unmarked), 1.36%; to `CCOc1ccccc1NC(=O)n1ncc2c(C)cccc21`, 8.44%.
To `COc1ccc(/C=C/C(=O)OCC(=O)Nc2ccc(S(N)(=O)=O)cc2)cc1OC` belongs 1.84%; to `CCN(CC)c1ccc(N2C(=O)/C(=C/c3ccccn3)SC2=S)cc1`, 14.8%.
To `CN1C(=O)C2C(c3ccc(N(C)C)cc3)=NN(Cc3ccccc3)C2C1=O` (centres unmarked) belongs 11.6%; to `COc1ccccc1C1C(C#N)=C(N)Oc2c1oc(CO)cc2=O` (centres unmarked), 0.727%; to `Cc1cccc(C(=O)OCc2cncs2)c1`, 4.46%.
With `CCOC(=O)c1c(C)[nH]c(N=Nc2ccccc2Cl)c1C`, the “hERG current change (%, negative = inhibition) at 1uM” value was found to be 10.2%.
The same measure for `CN1CCN(S(=O)(=O)c2cccc(C(=O)Nc3sc4c(c3-c3nc5ccccc5[nH]3)CCCC4)c2)CC1`: 0.151%.
To `CCOC(=O)c1ccccc1NC(=O)CSc1nnc(Cc2cccn2C)n1-c1ccc(C)cc1` belongs -6.8%.
The same measure for `CCOc1ccc(S(=O)(=O)N2CN3CCN(C3)C2)cc1`: 4.02%; for `CC1CN(c2nnnn2-c2ccccc2)CC(C)O1` (centres unmarked): -16.8%; for `COC(=O)c1cccc(-c2ccc(C(c3c(C)[nH][nH]c3=O)c3c(C)[nH][nH]c3=O)o2)c1`: -2.67%.
In the case of `Cc1ccc(N2CC(C(=O)OCC(=O)Nc3ccccc3C)CC2=O)cc1` (centres unmarked), the “hERG current change (%, negative = inhibition) at 1uM” value stood at 10.7%.
Regarding `Cc1ccccc1NC(=O)C(=O)NC(C)CCc1ccccc1` (centres unmarked), the “hERG current change (%, negative = inhibition) at 1uM” value is on record as 13.9%.
For the molecule `COc1cc(S(=O)(=O)N2CCN(C)CC2)c(OC)cc1Br`, the “hERG current change (%, negative = inhibition) at 1uM” value is -3.58%.
For `C/C=C/c1ccc(OCCCCN2CC(C)CC(C)C2)c(OC)c1.O=C(O)C(=O)O` (centres unmarked), the “hERG current change (%, negative = inhibition) at 1uM” value is on record as -32.3%.
Consider `CC(C)c1ccc(NC(=O)CCNC(=O)Cn2cnc3ccccc3c2=O)cc1`, for which the “hERG current change (%, negative = inhibition) at 1uM” value is reported as 11.6%.
`COc1ccc(N2CCN(S(=O)(=O)CCNC(=O)/C=C/c3ccc4c(c3)OCO4)CC2)cc1`: the “hERG current change (%, negative = inhibition) at 1uM” value is reported as 12.1%.
To `CCCOC1(NC(=O)c2ccccc2)C(C)=CC(=O)C=C1C` belongs -14.7%; to `C[C@H](NC(=O)c1cc2c(cn1)[nH]c1ccccc12)C(=O)O`, 7.61%.
To `Cc1ccc(S(=O)(=O)N2CCN(C(=O)c3n[nH]c4ccccc34)CC2)cc1` belongs 6.59%; to `S=c1[nH]nc(-c2ccc(Cl)cc2)n1/N=C/C=C/c1ccco1`, 15.2%.
To `Cc1cc(N=CC2=C(O)CCCC2=O)no1` belongs 6.14%; to `O=C(O)COc1ccccc1/C=N/NC(=O)CSc1nnc(-c2ccc(Cl)cc2)n1C1CCCCC1`, 9.47%; to `COC1=C/C(=C/c2c(N)n3nc(CC(=O)N4CCCCC4)sc3nc2=O)C=CC1=O`, 8.31%.
In the case of `Cc1cc(C(=O)N[C@@H](c2ccccc2)[C@]2(C)C[C@H]2[C@@H](C)C(=O)Nc2ccc3ccccc3c2)no1`, the “hERG current change (%, negative = inhibition) at 1uM” value is listed as 3.85%.
As for `O=C(CCn1c(=O)oc2ccccc21)N1CCOCC1`, the “hERG current change (%, negative = inhibition) at 1uM” value worked out at 17.4%.
To `CCO[C@@H]1OC(C(=O)N2CCN(Cc3ccc4c(c3)OCO4)CC2)=C[C@H](c2csc3ccccc23)[C@H]1CCCO` belongs -1.8%; to `CCOc1ccc(S(=O)(=O)NCCC(=O)NCC(c2cccs2)N2CCOCC2)cc1` (centres unmarked), 2.32%.
Take `CC(C)(C)OC(=O)NCCc1nnc(SCc2ccc(Cl)cc2)o1`: the “hERG current change (%, negative = inhibition) at 1uM” value is on record as -16.1%.
The same measure for `C=CCc1c(C)nc2c(C)cccc2c1SC(=N)N.Cl`: 7.72%; for `COc1cc(CC(NC(C)=O)C(=O)NC2CCN(c3nc(C)cc(C)c3C#N)CC2)cc(OC)c1` (centres unmarked): -6.05%.
To `CC1=C([N+](=O)[O-])C(c2ccc(O)c(O)c2)NC(=O)N1` (centres unmarked) belongs 9.61%.
